Some of the results follow. Interaction screen of human proteins with wild-type SARS-CoV-2 proteins by split-DHFR complementation in yeast, 1 µg/mL methotrexate. Value = fitness of the pair (three or more lineages) minus that of the viral protein without a human partner, on a scale set by negative (0) and fused positive (1) controls, mean of up to three cultures; higher = more likely to interact. Active = false discovery rate below 0.05 (one-sided t-test) in at least one culture. Nearly all pairs are not hits, and differences among them are mostly noise (correlation between cultures about 0.3); most hits were seen in one culture only. Human sequences are the Swiss-Prot entries looked up by gene name; the clone may be another isoform. NSP2 values were corrected by the authors for a growth advantage. Listed are human proteins with a hit and a random twelfth of the others.
B1: PRPH2, P23942 (protein)
chain: MALLKVKFDQKKRVKLAQGLWLMNWFSVLAGIIIFSLGLFLKIELRKRSDVMNNSESHFVPNSLIGMGVLSCVFNSLAGKICYDALDPAKYARWKPWLKPYLAICVLFNIILFLVALCCFLLRGSLENTLGQGLKNGMKYYRDTDTPGRCFMKKTIDMLQIEFKCCGNNGFRDWFEIQWISNRYLDFSSKEVKDRIKSNVDGRYLVDGVPFSCCNPSSPRPCIQYQITNNSAHYSYDHQTEELNLWVRGCRAALLSYYSSLMNSMGVVTLLIWLFEVTITIGLRYLQTSLDGVSNPEESESESQGWLLERSVPETWKAFLESVKKLGKGNQVEAEGADAGQAPEAG
B2: RAD51D, O75771 (protein)
chain: MGVLRVGLCPGLTEEMIQLLRSHRIKTVVDLVSADLEEVAQKCGLSYKALVALRRVLLAQFSAFPVNGADLYEELKTSTAILSTGIGSLDKLLDAGLYTGEVTEIVGGPGSGKTQVCLCMAANVAHGLQQNVLYVDSNGGLTASRLLQLLQAKTQDEEEQAEALRRIQVVHAFDIFQMLDVLQELRGTVAQQVTGSSGTVKVVVVDSVTAVVSPLLGGQQREGLALMMQLARELKTLARDLGMAVVVTNHITRDRDSGRLKPALGRSWSFVPSTRILLDTIEGAGASGGRRMACLAKSSRQPTGFQEMVDIGTWGTSEQSATLQGDQT
B3: SECISBP2, Q96T21 (protein)
chain: MASEGPREPESEGIKLSADVKPFVPRFAGLNVAWLESSEACVFPSSAATYYPFVQEPPVTEQKIYTEDMAFGASTFPPQYLSSEITLHPYAYSPYTLDSTQNVYSVPGSQYLYNQPSCYRGFQTVKHRNENTCPLPQEMKALFKKKTYDEKKTYDQQKFDSERADGTISSEIKSARGSHHLSIYAENSLKSDGYHKRTDRKSRIIAKNVSTSKPEFEFTTLDFPELQGAENNMSEIQKQPKWGPVHSVSTDISLLREVVKPAAVLSKGEIVVKNNPNESVTANAATNSPSCTRELSWTPMGYVVRQTLSTELSAAPKNVTSMINLKTIASSADPKNVSIPSSEALSSDPSYNKEKHIIHPTQKSKASQGSDLEQNEASRKNKKKKEKSTSKYEVLTVQEPPRIEDAEEFPNLAVASERRDRIETPKFQSKQQPQDNFKNNVKKSQLPVQLDLGGMLTALEKKQHSQHAKQSSKPVVVSVGAVPVLSKECASGERGRRMSQMKTPHNPLDSSAPLMKKGKQREIPKAKKPTSLKKIILKERQERKQRLQENAVSPAFTSDDTQDGESGGDDQFPEQAELSGPEGMDELISTPSVEDKSEEPPGTELQRDTEASHLAPNHTTFPKIHSRRFRDYCSQMLSKEVDACVTDLLKELVRFQDRMYQKDPVKAKTKRRLVLGLREVLKHLKLKKLKCVIISPNCEKIQSKGGLDDTLHTIIDYACEQNIPFVFALNRKALGRSLNKAVPVSVVGIFSYDGAQDQFHKMVELTVAARQAYKTMLENVQQELVGEPRPQAPPSLPTQGPSCPAEDGPPALKEKEEPHYIEIWKKHLEAYSGCTLELEESLEASTSQMMNLNL
B4: SENP8, Q96LD8 (protein)
chain: MDPVVLSYMDSLLRQSDVSLLDPPSWLNDHIIGFAFEYFANSQFHDCSDHVSFISPEVTQFIKCTSNPAEIAMFLEPLDLPNKRVVFLAINDNSNQAAGGTHWSLLVYLQDKNSFFHYDSHSRSNSVHAKQVAEKLEAFLGRKGDKLAFVEEKAPAQQNSYDCGMYVICNTEALCQNFFRQQTESLLQLLTPAYITKKRGEWKDLITTLAKK
B5: SGMS2, Q8NHU3 (protein)
chain: MDIIETAKLEEHLENQPSDPTNTYARPAEPVEEENKNGNGKPKSLSSGLRKGTKKYPDYIQIAMPTESRNKFPLEWWKTGIAFIYAVFNLVLTTVMITVVHERVPPKELSPPLPDKFFDYIDRVKWAFSVSEINGIILVGLWITQWLFLRYKSIVGRRFCFIIGTLYLYRCITMYVTTLPVPGMHFQCAPKLNGDSQAKVQRILRLISGGGLSITGSHILCGDFLFSGHTVTLTLTYLFIKEYSPRHFWWYHLICWLLSAAGIICILVAHEHYTIDVIIAYYITTRLFWWYHSMANEKNLKVSSQTNFLSRAWWFPIFYFFEKNVQGSIPCCFSWPLSWPPGCFKSSCKKYSRVQKIGEDNEKST
B6: SLC35D2, Q76EJ3 (protein)
chain: MTAGGQAEAEGAGGEPGAARLPSRVARLLSALFYGTCSFLIVLVNKALLTTYGFPSPIFLGIGQMAATIMILYVSKLNKIIHFPDFDKKIPVKLFPLPLLYVGNHISGLSSTSKLSLPMFTVLRKFTIPLTLLLETIILGKQYSLNIILSVFAIILGAFIAAGSDLAFNLEGYIFVFLNDIFTAANGVYTKQKMDPKELGKYGVLFYNACFMIIPTLIISVSTGDLQQATEFNQWKNVVFILQFLLSCFLGFLLMYSTVLCSYYNSALTTAVVGAIKNVSVAYIGILIGGDYIFSLLNFVGLNICMAGGLRYSFLTLSSQLKPKPVGEENICLDLKS

Experiments:
Assay in all cases: yeast fitness gain over the viral ORF with no human partner (scaled fitness); higher = more likely to interact
SARS-CoV-2 M = target: SARS-CoV-2 M
Procedure: (§1)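 Split mouse DHFR complementation in pooled diploid yeast: human ORFeome clones carry one fragment and viral ORFs the other; barcoded lineages compete in 1 µg/mL methotrexate and fitness is read by barcode sequencing in up to three cultures.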

SARS-CoV-2 NSP1 = target: SARS-CoV-2 NSP1
Procedure: as §1

SARS-CoV-2 NSP10 = target: SARS-CoV-2 NSP10
Procedure: as §1

SARS-CoV-2 NSP12 = target: SARS-CoV-2 NSP12
Procedure: as §1

SARS-CoV-2 NSP13 = target: SARS-CoV-2 NSP13
Procedure: as §1

SARS-CoV-2 NSP16 = target: SARS-CoV-2 NSP16
Procedure: as §1

SARS-CoV-2 NSP2 = target: SARS-CoV-2 NSP2
Procedure: as §1

SARS-CoV-2 NSP5 = target: SARS-CoV-2 NSP5
Procedure: as §1

SARS-CoV-2 NSP7 = target: SARS-CoV-2 NSP7
Procedure: as §1

SARS-CoV-2 ORF6 = target: SARS-CoV-2 ORF6
Procedure: as §1

SARS-CoV-2 ORF7A = target: SARS-CoV-2 ORF7A
Procedure: as §1

SARS-CoV-2 ORF8 = target: SARS-CoV-2 ORF8
Procedure: as §1

SARS-CoV-2 ORF9B = target: SARS-CoV-2 ORF9B
Procedure: as §1

[1] = target: SARS-CoV-2 ORF9Bwu (the 73-codon ORF)
Procedure: as §1

SARS-CoV-2 S = target: SARS-CoV-2 S
Procedure: as §1

SARS-CoV-2 NSP15 = target: SARS-CoV-2 NSP15
Procedure: as §1

SARS-CoV-2 NSP6 = target: SARS-CoV-2 NSP6
Procedure: as §1

SARS-CoV-2 NSP9 = target: SARS-CoV-2 NSP9
Procedure: as §1

SARS-CoV-2 ORF10 = target: SARS-CoV-2 ORF10
Procedure: as §1

SARS-CoV-2 ORF3B = target: SARS-CoV-2 ORF3B
Procedure: as §1

SARS-CoV-2 ORF3A = target: SARS-CoV-2 ORF3A
Procedure: as §1

SARS-CoV-2 ORF7B = target: SARS-CoV-2 ORF7B
Procedure: as §1

SARS-CoV-2 NSP8 = target: SARS-CoV-2 NSP8
Procedure: as §1

SARS-CoV-2 NSP4 = target: SARS-CoV-2 NSP4
Procedure: as §1

Binder | yeast fitness gain (SARS-CoV-2 M) | yeast fitness gain (SARS-CoV-2 NSP1) | yeast fitness gain (SARS-CoV-2 NSP10) | yeast fitness gain (SARS-CoV-2 NSP12) | yeast fitness gain (SARS-CoV-2 NSP13) | yeast fitness gain (SARS-CoV-2 NSP16) | yeast fitness gain (SARS-CoV-2 NSP2) | yeast fitness gain (SARS-CoV-2 NSP5) | yeast fitness gain (SARS-CoV-2 NSP7) | yeast fitness gain (SARS-CoV-2 ORF6) | yeast fitness gain (SARS-CoV-2 ORF7A) | yeast fitness gain (SARS-CoV-2 ORF8) | yeast fitness gain (SARS-CoV-2 ORF9B) | yeast fitness gain [1] | yeast fitness gain (SARS-CoV-2 S) | yeast fitness gain (SARS-CoV-2 NSP15) | yeast fitness gain (SARS-CoV-2 NSP6) | yeast fitness gain (SARS-CoV-2 NSP9) | yeast fitness gain (SARS-CoV-2 ORF10) | yeast fitness gain (SARS-CoV-2 ORF3B) | yeast fitness gain (SARS-CoV-2 ORF3A) | yeast fitness gain (SARS-CoV-2 ORF7B) | yeast fitness gain (SARS-CoV-2 NSP8) | yeast fitness gain (SARS-CoV-2 NSP4)
B1 | inactive: -0.06 | inactive: 0.0168 | inactive: 0.105 | inactive: 0.0412 | inactive: -0.21 | inactive: -0.000146 | inactive: -0.139 | inactive: -0.204 | inactive: 0.114 | inactive: -0.0845 | inactive: 0.0393 | inactive: -0.021 | inactive: 0.00937 | inactive: -0.131 | inactive: -0.14 | – | – | – | – | – | – | – | – | –
B2 | inactive: -0.0685 | – | – | – | – | inactive: 0.17 | – | – | inactive: -0.0238 | – | – | – | – | inactive: 0.0552 | – | inactive: -0.294 | inactive: -0.0055 | inactive: 0.0873 | – | – | – | – | – | –
B3 | inactive: -0.176 | inactive: 0.0826 | inactive: -0.107 | inactive: -0.00994 | inactive: -0.0309 | – | inactive: -0.154 | inactive: -0.0299 | – | inactive: 0.0443 | – | inactive: -0.0699 | inactive: -0.122 | – | inactive: 0.00997 | – | – | – | inactive: 0.0228 | inactive: -0.114 | – | – | – | –
B4 | inactive: -0.124 | – | – | inactive: -0.0249 | inactive: -0.00241 | – | inactive: -0.392 | inactive: 0.00397 | inactive: -0.0304 | inactive: 0.0688 | – | inactive: -0.0149 | inactive: -0.0146 | – | inactive: -0.365 | – | inactive: -0.136 | – | inactive: -0.13 | inactive: -0.197 | inactive: -0.102 | inactive: 0.0518 | – | –
B5 | inactive: -0.0778 | inactive: -0.0835 | inactive: -0.0111 | inactive: -0.059 | inactive: -0.104 | inactive: -0.341 | inactive: -0.0395 | inactive: -0.16 | – | inactive: -0.0298 | inactive: 0.0967 | inactive: -0.057 | inactive: -0.00385 | – | inactive: 0.000705 | inactive: -0.000301 | inactive: -0.0892 | inactive: -0.0548 | inactive: -0.0171 | inactive: -0.012 | inactive: 0.00584 | active: 0.644 | inactive: 0.0271 | –
B6 | inactive: -0.0307 | inactive: -0.0523 | inactive: 0.0513 | inactive: -0.117 | inactive: -0.0214 | – | inactive: -0.108 | inactive: -0.112 | inactive: 0.0821 | inactive: 0.0275 | inactive: -0.136 | inactive: 0.00859 | inactive: 0.0221 | – | inactive: 0.00385 | inactive: 0.0828 | inactive: -0.0152 | inactive: 0.0595 | inactive: -0.0211 | inactive: 0.00795 | – | inactive: -0.000854 | inactive: -0.0677 | inactive: -0.323
